# Data published in the supplement of paper PMC11417369.
# ± gives the standard deviation of the averaged measurements. Some of the results follow.
# Tested on: PfAP2-I AP2 domain 3 (GST-tagged)
# Assay: gcPBM binding intensity (ln(normalized median fluorescence intensity)); higher = stronger DNA binding
# Outline: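 An Agilent 4 × 180k array carrying primer-extended double-stranded 36-bp intergenic genomic probes and negative controls received GST-tagged P. falciparum DNA-binding domains expressed in E. coli, about 25 μg on average, for 1 h. The binding buffer contained 1× PBS, 1% milk, 0.2 mg/ml BSA, 0.5% salmon testes DNA and 0.03% Triton X-100. Binding intensity is the top Masliner-normalised natural-log median intensity across replicate spots of either probe orientation, read after Alexa488 anti-GST antibody staining and a 488 nm scan.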
row,Sequence,gcPBM binding intensity (ln)
1,TTTTAATTAGCTAGACGTACAATAATATACAAATAT [XGTACX_site6068],7.95 ± 0.37
2,CATATGTAGGGAACAATATAATATGCTTTGAATATG [GTGCAC_negctrl_site524],7.79 ± 0.81
3,ATTTTTTTAAGATAAGAAAAATAAAGTGTGGATATT [XGTACX_negctrl_site476],8 ± 0.52
4,CAAACCCACGGACACACACACACAAAAATGATTAAA [CACACA_site5365],7.99 ± 0.2
5,TTTATTTATTTATGTGGTACTTCAAAAATATATACT [XGTACX_site355],7.98 ± 0.42
6,GGATACGCTTTTGTACCACTCCCCCTTTTGGGAATA [CACACA_negctrl_site1363],8.43 ± 0.3
7,ATCATATAAACATATTGTACTTAAATACATAATATT [XGTACX_site3800],7.63 ± 0.35
8,ATATATATATATAGTGCACACTTAAGAATATAAAGA [CACACA_site4771],11.5 ± 0.27
9,AACTATTACTTTCTTTCACACATTTTTTTTTTTTTT [CACACA_site5355],7.89 ± 0.75
10,TGTTATATAATTTAGCGTACAGGTTATAGGACGGAT [XGTACX_site8823],8.5 ± 0.35
11,AACTCTTAGAATGACGGTACAGTATAATAGGTGAAC [XGTACX_site7163],7.92 ± 0.92
12,ATATAATGAATTATTAGAAAATAAAATGAATAAAGT [CACACA_negctrl_site690],8.12 ± 0.6
13,GCACAACATATATTATCACACACATATATATATATA [CACACA_site8619],9.54 ± 0.29
14,TATAATGAACATATGTGTACATATATTTTTTAAATT [XGTACX_site8736],7.56 ± 0.38
15,AAAAAACAAAAAAAAAAAAAAATAATACAATATAAT [CACACA_negctrl_site1630],7.32 ± 0.42
16,ACCATATAAATAAACACACACACACCGATATATATA [CACACA_site5310],8.18 ± 0.71
17,CAAAAGAATATATGTAGTACATGTTGTAGATAATAT [XGTACX_site1044],8.26 ± 0.49
18,CGCGAAGTAGCATTCACACACAGCAAAATATAAATA [CACACA_site7608],7.68 ± 0.62
19,TCAGATATATAGAATACACACATGGATATAAGAAAT [CACACA_site7831],7.97 ± 0.64
20,ATATTTTGTAACTATACACACATATATATATTATAA [CACACA_site3062],7.88 ± 0.56
21,TTTTTGTAATATTATGATGTCATATATATATATATA [XGTACX_negctrl_site618],9.08 ± 0.83
22,AAATTGGGTACAAATACACACACATATATATATTAA [CACACA_site8745],7.92 ± 0.27

row,Sequence,gcPBM binding intensity (ln)
1,TTTATACAATAAAATGCATGCAAGTATCTATTTTAT [TGCATGCA_site210],7.75 ± 0.69
2,ATAGATCCTAATGTTGTGCACATGTAAATTAATATA,10.1 ± 0.25
3,TTTTTTTTTTTTTTTTGTACGAATAAACAAGTTATT [XGTACX_site5473],7.79 ± 0.37
4,TGTATTAAAAATTTGGTGCAACTTTTACATAATAAT,9.49 ± 0.18
5,ATATATATATATATATGTACATATTTTATTTAATTT [XGTACX_site1807],9.48 ± 0.47
6,AAAAAAAAAAATAAATGTACAAAATAATGGGGAACA [XGTACX_site8723],8.01 ± 0.78
7,GTGAATGATTTAAGTACACACCGGTATTTATTCAAA [CACACA_site4950],8.03 ± 0.22
8,AAAAAAAAAAAATACACACACACATATTTATTTATA [CACACA_site6483],7.6 ± 0.38
9,ATATATTTAAAAAAATGTACAAATCATAAATGCAAG [XGTACX_site4230],7.87 ± 0.47
10,AGAAATTAAATGTAAGCACACATAAATTATACACAT [CACACA_site9098],8.12 ± 0.55
11,AAAAAATTATACCAGTGTACTTTTTTGGTTTTTCTT [XGTACX_site2601],7.86 ± 0.25
12,TATAATGTTGATGATAGTACGTATGAGTTCAAAAAA [XGTACX_site3651],7.99 ± 0.54
13,AAAAGAATTAATTTATGTACTAATTTCAAGAAATAA [XGTACX_site3241],7.46 ± 0.33
14,CTCGATCAAGTGTATGCATGTACCAGTGAACAAAAA [TGCATGCA_site635],8.1 ± 0.62
15,TCCTTACACACACTTTTTTTTTTTTTTTTTTCTACA [GTGCAC_negctrl_site263],7.96 ± 0.59
16,ATATATTATCAACTTACACACAGAAAACTATAATAA [CACACA_site6275],7.75 ± 0.59
17,CTTTTTCCTTTATAAAGTACTTAAAATATTTAGATA [XGTACX_site4259],7.93 ± 0.41
18,TATATATTTATTTATTGTACACTCTTTAAGAATACA [XGTACX_site2569],7.91 ± 0.26
19,TATATATATATATATATATATATATATGTGTATGTA [TGCATGCA_negctrl_site255],9.61 ± 0.49
20,GATTCGATCTATATATGTACACATAAATATTTTTTG [XGTACX_site7015],7.89 ± 0.53
21,ATACACAAGAATATGTTGCACTTTTATATTCGTATG,9.36 ± 0.13
22,AATAAAATTGACCATTCACACAAGAAAAATTAATCA [CACACA_site5636],7.43 ± 0.5
